# PubChem BioAssay AID686970 (National Center for Advancing Translational Sciences (NCATS), 2013)
# In all, about 360,000 compounds went through this assay and about 6,000 (1.7%) were called active. Inconclusive means that the source gave no clear call. Such entries were picked first, then a sample of the others. The call rests on the fitted dose curve; in most records, active means well fitted cell-killing curve with a large enough effect; inconclusive means small, poorly fitted or top-dose-only effect, or effect the other way; inactive means flat fitted curve, though single readings scatter. Potencies of inconclusive entries are left out as doubtful fits.
# Assay: qHTS for induction of synthetic lethality in tumor cells producing 2HG: qHTS for the HT-1080-NT fibrosarcoma cell line;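 further: NT is the 2HG producing partner of a matched IDH1 knockdown line; nearly all actives have a fitted effect of over 55% in size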;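 on activity, negative = less viability: 0% = DMSO-treated cells and -100% = media-only wells without cells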
# Details: HT-1080-NT fibrosarcoma viability, CellTiter-Glo ATP luminescence, 48 h; activity, negative = less viability: at 46.1 µM (top of the series) unless noted
# Method in brief: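 Fibrosarcoma NT cells, 750 per well in 5% FBS RPMI, were exposed to compound for 48 hours. Viability: CellTiter-Glo luminescence.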
# Potency means the concentration at half of the fitted maximal effect; tags describe the fitted curve by direction and shape.
Compound,Potency,"activity, negative = less viability"
OCCN1CCN(c2cc(-c3ccccc3)c3ccccc3n2)CC1,"inconclusive [cytotoxic, single point]",–
COc1ccccc1C1CC(=O)Nc2cc(C)c(C)cc21 (configuration not stated),"inconclusive [cytotoxic, single point]",–
Cc1ccc(C)c2nc(Cl)c(C3NC(=O)c4ccccc4N3)cc12 (configuration not stated),"inconclusive [cytotoxic, single point]",–
CC(C)C[C@H](N)c1nnc(S(=O)(=O)Cc2ccc(F)cc2)o1,"inconclusive [cytotoxic, single point]",–
Cc1ccccc1-n1c(C)nnc1SCC(=O)NCC1CCCO1 (configuration not stated),"inconclusive [cytotoxic, single point]",–
COc1ccccc1CNc1nc(NCc2ccc3occc3c2)c2sccc2n1,active: 16.4 µM,–
Cc1ccc(Nc2nc(NCCO)nc3c2cnn3C)cc1Cl,inactive,–
COCc1cc(=O)[nH]c(/N=C(\N)Nc2cccc(Cl)c2)n1,inactive,–
COc1c(-c2ccc(O)cc2)oc2cc(O)cc(O)c2c1=O,inactive,–
COC(=O)c1ccccc1OCc1cc(=O)oc2ccc(C)cc12,–,inconclusive: 31.5%
COc1cccc(C2Nc3ccc4ccccc4c3C3=C2C(=O)CCC3)c1O (configuration not stated),"inconclusive [cytotoxic, partial curve]",–
CSc1ccc(CNC(=O)Cc2ccc(NC(=O)C3=C(C)OCCS3)cc2)cc1,"inconclusive [cytotoxic, partial curve]",–
Cc1ccc(NC(=O)COC(=O)Cc2c[nH]c3ccccc23)cc1,inactive,–
Cc1ccc(NS(=O)(=O)c2cc3c4c(cccc4c2)C(=O)NC3=O)cc1,–,inconclusive: -17.7% [cytotoxic]
Cc1cc(C(=O)N2CCc3ccccc32)n(-c2ccccc2)n1,"inconclusive [cytotoxic, partial curve]",–
CC(=O)Nc1cc(-c2ccc(Cl)cc2)[nH]n1,inactive,–
CCOC(=O)C1=C(CCl)NC(=O)NC1c1ccc2c(c1)OCO2 (configuration not stated),"inconclusive [cytotoxic, single point]",–
CCOC(=O)N1CCN(S(=O)(=O)c2ccc(OC)c(Cl)c2)CC1,inactive,–
CC1(C(=O)NS(=O)(=O)c2ccc(Cl)cc2)CCN1C(=O)CCc1ccccc1 (configuration not stated),–,inconclusive: 13.2%
COc1cc2c(cc1OC)-c1cc(Nc3ccc4c(c3)OCCO4)nc(=O)n1CC2,inactive,–
O=C(NC(=S)NCc1ccccc1)c1ccccc1,inactive,–
Cc1c(N=C2C=CC(=O)c3ccccc32)c(=O)n(-c2ccccc2)n1C,active: 20.6 µM,–
CSc1ccccc1OCc1cc(C(=O)N2CCN3CCCC3C2)no1 (configuration not stated),inactive,–
CC1CN(CCS(=O)(=O)c2cc(Cl)ccc2Cl)CC(C)O1 (configuration not stated),"inconclusive [cytotoxic, single point]",–

Compound,Potency,"activity, negative = less viability"
COc1cccc(Cn2c(Oc3cccc(C)c3)nc3c2c(=O)n(C)c(=O)n3C)c1,"inconclusive [cytotoxic, partial curve]",–
COc1ccc(-c2nc(N)ncc2-c2ccc(OC)c(OC)c2)c(O)c1,"inconclusive [cytotoxic, single point]",–
O=[N+]([O-])c1cccc(N/N=C/c2cccc(O)c2O)c1,"inconclusive [cytotoxic, full curve]",–
COC(=O)[C@@H]1C[C@@H]2CC[C@@H](O)C[C@@H]2N1Cc1ccc(N2CCN(C)CC2)cc1,inactive,–
Nc1nc(SCc2ccccn2)c2ncn(C3OC(CO)C(O)C3O)c2n1 (configuration not stated),inactive,–
CC(=O)c1cccc(-c2ccnc3c2CC(C(=O)Nc2ccc(F)c(Cl)c2)O3)c1 (configuration not stated),"inconclusive [cytotoxic, single point]",–
Oc1[nH]c(=S)sc1/C=C1\C(c2ccccc2)=Nc2ccccc21,"inconclusive [cytotoxic, single point]",–
C=CCc1cccc(CNc2nc3ccccc3n2C(C)C)c1O,"inconclusive [cytotoxic, single point]",–
COc1cc(CNCc2ccccn2)ccc1OCc1cccc(Cl)c1,"inconclusive [cytotoxic, single point]",–
O=C(OCn1ncc(Br)c(Br)c1=O)c1ccc(F)cc1,active: 20.6 µM,–
C[n+]1c2n(c3ccccc31)N=C(c1ccccc1)CS2,"inconclusive [cytotoxic, full curve]",–
CCOC(=O)[C@]12CCC=C1N(CCC1=CCCCC1)C(=O)[C@H](CC(=O)NCCCCc1ccccc1)C2,"inconclusive [cytotoxic, single point]",–
CC1=N/C(=C\c2ccc([N+](=O)[O-])cc2)C(=O)N1c1ccc(F)cc1F,–,inconclusive: -27.1% [cytotoxic]
CC(C)CN(Cc1cc(=O)oc2cc(-c3ccccc3)c(O)cc12)CC(C)C,active: 25.9 µM,–
O=C(NN=c1c(=O)c2ccccc2c1=O)c1ccccc1,inactive,–
Nc1nonc1-c1nc2ccccc2n1Cc1ccccc1,"inconclusive [cytotoxic, single point]",–
S=C(NCc1cccs1)Nc1cccc(Cl)c1,"inconclusive [cytotoxic, single point]",–
Cc1ccc(OCc2cc(C(=O)N3CCC(c4ccccc4Cl)C3)no2)cc1C (configuration not stated),–,inconclusive: 4.59%
Cc1cc(OCc2cc(C(=O)NC(C)c3c(C)nn(C)c3C)no2)cc(C)c1Cl (configuration not stated),"inconclusive [cytotoxic, partial curve]",–
COc1c(C)cc(C(O)c2ncc(-c3cccc(C(F)(F)F)c3)[nH]2)cc1C (configuration not stated),"inconclusive [cytotoxic, partial curve]",–
Cc1ncc(CO)c2c1Oc1nc(-c3ccccc3)nc(SCC(=O)N3CCOCC3)c1C2,inactive,–
COc1cc(C(O)c2nc(-c3ccccc3C)cs2)ccc1F (configuration not stated),"inconclusive [cytotoxic, partial curve]",–
O=C(Cc1coc2cc(O)ccc12)N1CCN(S(=O)(=O)c2ccc(Br)cc2)CC1,inactive,–
O=C(C#Cc1ccccc1)c1ccccc1,"inconclusive [cytotoxic, single point]",–

Compound,Potency,"activity, negative = less viability"
CCCN=C(C)C1=C(O)c2ccccc2C1=O,–,inconclusive: 16.7%
Cc1ccc(C(=O)NN(CCC(=O)NC(C)(C)C)C2=NS(=O)(=O)c3ccccc32)cc1,inactive,–
CCCCCC(=O)N1C[C@H](n2cc(-c3ccc(F)cc3)nn2)[C@@H](O)C[C@@H]1c1ccc(C)cc1,"inconclusive [cytotoxic, single point]",–
Nc1nc(-c2ccccn2)nc(N)c1Cc1ccc(Cl)cc1Cl,"inconclusive [cytotoxic, single point]",–
Cc1cc2oc(C(=O)NCC(c3ccco3)N3CCCC3)c(C)c2cc1C (configuration not stated),"inconclusive [cytotoxic, single point]",–
Cc1cnc(CNC(=O)c2ccc3sc([C@H]4C[C@H](O)[C@@H](CO)O4)nc3c2)cn1,"inconclusive [rising, full curve]",–
CCNc1nc(NCC)nc(N/N=C/c2ccc(O)c(OC)c2)n1,"inconclusive [rising, single point]",–
Cn1ccc2cc(NC(=O)Nc3cccnc3)ccc21,"inconclusive [cytotoxic, single point]",–
Cc1ccc(C)c(C(O)c2ncc(-c3ccc(Cl)cc3)[nH]2)c1 (configuration not stated),"inconclusive [cytotoxic, partial curve]",–
COc1ccc(C(CC(=O)c2ccc(O)cc2)S(=O)(=O)c2ccc(C)cc2)cc1 (configuration not stated),"inconclusive [cytotoxic, partial curve]",–
COc1ccc(-c2cc(C(=O)Nc3ccc(S(N)(=O)=O)cc3)c3ccccc3n2)cc1OC,inactive,–
Cc1cc(O)c(/C=N/Nc2ccc(F)cc2)c(=O)o1,"inconclusive [cytotoxic, single point]",–
OC[C@@H]1CN(C2CCCC2)C[C@H](n2cnc3c(N4CCCC4)ncnc32)O1,"inconclusive [rising, single point]",–
CCOc1ccc2nc(Cl)c(/C=C/C(=O)c3ccco3)cc2c1,"inconclusive [cytotoxic, single point]",–
Cc1nn(Cc2noc(C(=O)NCc3ccc4c(c3)OCO4)n2)c(C)c1Br,–,inconclusive: -37.8% [cytotoxic]
O=C(NC(c1ccc(Cl)cc1)c1cccnc1)C1CCN(CCOc2ccc(Cl)cc2Cl)CC1 (configuration not stated),active: 18.4 µM,–
CC(=O)[C@]1(O)Cc2c(O)c3c(c(O)c2[C@@H](O[C@H]2C[C@H](N)[C@H](O)[C@H](C)O2)C1)C(=O)c1ccccc1C3=O,active: 3.26 µM,–
COc1ccc(-c2cc(=Nc3ccc(C)cc3)c3ccccc3o2)cc1,"inconclusive [cytotoxic, single point]",–
O=c1cnc2ccccc2n1Cc1ccc(Br)cc1,"inconclusive [cytotoxic, single point]",–
O=C(COc1ccc(Br)cc1)NCCCNC(=O)c1cccnc1,"inconclusive [cytotoxic, single point]",–
O=C(/C=C/c1cccc([N+](=O)[O-])c1)NCCSCc1ccc(Cl)cc1,inactive,–
CCCOC(=O)c1ccc(Oc2c(-c3ccc(OC)cc3O)n[nH]c2C)cc1,"inconclusive [cytotoxic, single point]",–
N#Cc1c(/N=C/N2CCOCC2)sc2c1CCCCC2,inactive,–
O=C(N/N=C/c1ccc(F)cc1)c1cccc(NC(=O)c2ccc(F)cc2)c1,"inconclusive [cytotoxic, partial curve]",–
